Experimental data published in publication PMC12136788.
The list shows a part of the results.

T1: UNK ZnF1-6 (called full-length) (human, UniProt Q9C0B0 30-357)
T1 sequence: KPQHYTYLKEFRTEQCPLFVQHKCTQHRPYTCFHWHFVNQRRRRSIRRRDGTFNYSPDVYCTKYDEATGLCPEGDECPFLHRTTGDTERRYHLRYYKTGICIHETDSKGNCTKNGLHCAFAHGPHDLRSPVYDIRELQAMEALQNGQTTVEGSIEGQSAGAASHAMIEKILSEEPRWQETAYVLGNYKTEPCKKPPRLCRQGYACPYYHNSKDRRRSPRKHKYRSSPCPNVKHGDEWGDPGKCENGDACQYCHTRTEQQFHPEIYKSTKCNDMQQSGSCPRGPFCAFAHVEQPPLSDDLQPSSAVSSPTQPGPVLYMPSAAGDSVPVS

B1: ENSG00000169762:stop:overlap|stop_codon|ENSG00000169762|stop_codon|NA|stop_codon (ssRNA)
RNA: GGGAGUUCUACAGUCCGACGAUCUCCUCACUUUGCCUUGCUAUGGCUUAAGACCGAAGGGAGGAGCACUUUCACUUCCUUUAUAGAAUGGAAUGUGGUGGCACAGGGACUCCUUGUGGGACAGACGUUUGCUUCAGCCUGCCCCAACAGAGGAUUGAGCAUCA
B2: chr7:139079551:139079652:-|CDS|ENSG00000105939|unk|FALSE|bound_elsewhere (ssRNA)
RNA: GGGAGUUCUACAGUCCGACGAUCAAUGCUGAUGGAGUGGCCACAGAUAUAACUUCUACCAGAUCCUUAAAUUACAAAAGCACUAGCAGCGGUCACAGAGAAAUAUCAUCACCUAGGAUUCAGGAUGCUGGACCUGCUUCCCGACAACAGAGGAUUGAGCAUCA
B3: chr7:16791810:16792950:-|three_prime_utr|ENSG00000106541|control|control|control (ssRNA)
RNA: GGGAGUUCUACAGUCCGACGAUCAGCCCUUCUGUCUGUCAGGCCUUGAGACUUGAAACCAGAAGAAGUGUGAGAAGACUGGCUAGUGUGGAAGCAUAGUGAACACACUGAUUAGGUUAUGGUUUAAUGUUACAACAACUAUUUCAACAGAGGAUUGAGCAUCA
B4: chr10:92030471:92030572:+|3pUTR|ENSG00000095564|unk|total|mutant (ssRNA)
RNA: GGGAGUUCUACAGUCCGACGAUCUAUUUUUUUAUUAACUAUUUAUUUGCCCGUUCCAUAAACCAGCUCUUUAACACCGCUUACCGUAAUUGAUAUUUUCUCCGAAUAAGUACAGAGCAAUAUAUCAUUAAAGGGCUAUGAAGGCAACAGAGGAUUGAGCAUCA
B5: chr7:137879121:137879144:-|3pUTR|ENSG00000182158|msi1_unk|FALSE|overlapping (ssRNA)
RNA: GGGAGUUCUACAGUCCGACGAUCUAAUCCCCAACCUACUUUUAGUUUUUUUGUUUUUUUUUUAUGGUUAAAAGUAACUUUUGUAGUUUAAAAAAAUCUUUCCUCUUUCAUAUAAAUAAGAAGUGGAAAUUGCCUUUUUAUUGUCAACAGAGGAUUGAGCAUCA
B6: ENSG00000176244:stop:overlap|stop_codon|ENSG00000176244|stop_codon|NA|stop_codon (ssRNA)
RNA: GGGAGUUCUACAGUCCGACGAUCAAGAUGCGACGAGUGCCUAUAUUUCUAAAGCAAAGGAGCUGAUAGAAAAAUACGGAAUUUAGAAUACAGCAUAUGAGGAAUUUUUCCUUUUGAAGACUUCCAAAUGCUAUCAUGACCUAACAACAGAGGAUUGAGCAUCA
B7: chr1:169376695:169376796:+|CDS|ENSG00000117475|unk|FALSE|unique (ssRNA)
RNA: GGGAGUUCUACAGUCCGACGAUCUCUUCAGCUAGGGAAAAUGCUCACUGAAAAAGCAAUGGAAGUUAAAGCUGUAAGAAUAUUAGUUCCCAAAGCUGCUAUAACUCAUGAUAUCCCCAACAAAAAUACAAAGGUUAAGUCUCUCAACAGAGGAUUGAGCAUCA
B8: chr3:113720845:113720875:-|3pUTR|ENSG00000121579|msi1_unk|FALSE|overlapping (ssRNA)
RNA: GGGAGUUCUACAGUCCGACGAUCCCUUUUUCUUCAGUAAACCCAACAAUAGUCUAACCUUAAAAAUUGAGUUGAUGUCCUUAUAGGUCACUACCCCUAAAUAAACCUGAAGCAGGUGUUUUCUCUUGGACAUACUAAAAAAUACAACAGAGGAUUGAGCAUCA
B9: chr2:150470103:150470218:-|CDS|ENSG00000115963|unk|FALSE|unique (ssRNA)
RNA: GGGAGUUCUACAGUCCGACGAUCAUGGCCAAACAGAUUGGAGCAGCUACUUAUAUCGAAUGCUCAGCUUUACAGUCGGAAAAUAGCGUCAGAGACAUUUUUCACGUUGCCACCUUGGCAUGUGUAAAUAAGACAAAUAAAAACCAACAGAGGAUUGAGCAUCA
B10: ENSG00000186472:stop:overlap|stop_codon|ENSG00000186472|stop_codon|NA|stop_codon (ssRNA)
RNA: GGGAGUUCUACAGUCCGACGAUCUUUCUUGUAAAUGGAAAUUUUAUCAUGUGUAUAGAUUCUGUAGCAUGCUUUUCUUUAUUUAGUUUUACUUUAUUCCUUUAUUGUUCUGUUUCUUGAUUGUUUGCUUGAUUUGUUUGGUGUCAACAGAGGAUUGAGCAUCA
B11: chr8:74853834:74853946:+|3pUTR|ENSG00000137558|unk|FALSE|unique (ssRNA)
RNA: GGGAGUUCUACAGUCCGACGAUCAAGUGCUUUUUUUUUUCUGAAUUAAUUAGGUAUUGGUAAAAUAUAUUUUUAAAUUUAGUUAGCUUUAUAAACACAAUUAGAAUUACAAUUAAUUAACAGAGGUAUAAUUGUCUCACUUUCCAACAGAGGAUUGAGCAUCA
B12: chrX:120613669:120613770:+|3pUTR|ENSG00000232119|msi1|total|mutant (ssRNA)
RNA: GGGAGUUCUACAGUCCGACGAUCUAUGCCUCCUGUAUAUCCUGUAAACAAAUAAGAUUGAUCAGAUUCAGGUUCAGUUUUUUCCGUGCCUUCUUUUGAGUAAAGUCAUACCAAACAGAUGCCCAGAACAUCUGGAUUUGGGUCCAACAGAGGAUUGAGCAUCA
B13: ENSG00000103657:stop:overlap|stop_codon|ENSG00000103657|stop_codon|NA|stop_codon (ssRNA)
RNA: GGGAGUUCUACAGUCCGACGAUCAGUUUUCUGUUGCUUUGACCAAAGAUGGUCAUGUGUAUACCUUUGGUCAAGGUGGUGAGUAGUCACUAUGACCUCCUUUCAGUAUAGAUAAUUUUCCACUUCUCUUUCAUGUGCUUUAUUCAACAGAGGAUUGAGCAUCA
B14: chr2:54972555:54972835:-|3pUTR|ENSG00000115310|msi1_unk|FALSE|overlapping (ssRNA)
RNA: GGGAGUUCUACAGUCCGACGAUCUGUGCACUGUGUAUGGUCCGUGUAGAUUGAUGCAGAUUUUCUGAAAUGAAAUGUUUGUUUAGACGAGAUCAUACCGGUAAAGCAGGAAUGACAAAGCUUGCUUUUCUGGUAUGUUCUAGGCAACAGAGGAUUGAGCAUCA
B15: ENSG00000168615:stop:overlap|stop_codon|ENSG00000168615|stop_codon|NA|stop_codon (ssRNA)
RNA: GGGAGUUCUACAGUCCGACGAUCCUGGCCAGAAUACCCAAAAUAAUUGGCAGAUGUCAAAUUUGGCUUUCUGUGUUUAUUACUAGAGCAUAAACAUUUCUAGUUUUGUUUGAGUGUUUUACAGUCCUUUUUGGCAGUUAGGUACAACAGAGGAUUGAGCAUCA
B16: chr16:56429670:56429771:-|3pUTR|ENSG00000167005|msi1|total|mutant (ssRNA)
RNA: GGGAGUUCUACAGUCCGACGAUCCAAUCACUGAGACUGCAUCAGAGUUUGCAAUUUUGUAUGUUUCAUUGCCAAAGAAGGCUCCGUGGUUGUUGACUGCCGUAUAAGUCAGCUUUCUGCCGCAUAAGAUUUGAUUUUCCCAUACAACAGAGGAUUGAGCAUCA
B17: ENSG00000070961:be:win_2451|CDS|ENSG00000070961|bound_else_gene|NA|bound_elsewhere_windowed (ssRNA)
RNA: GGGAGUUCUACAGUCCGACGAUCUGGAACUGAUGUAGCUAAAGAAGCAUCCGAUAUUAUUCUCACAGAUGACAACUUUACAAGCAUUGUUAAAGCAGUUAUGUGGGGACGAAAUGUCUAUGACAGCAUCUCAAAAUUCCUUCACAACAGAGGAUUGAGCAUCA
B18: ENSG00000136451:be:win_3701|3pUTR|ENSG00000136451|bound_else_gene|NA|bound_elsewhere_windowed (ssRNA)
RNA: GGGAGUUCUACAGUCCGACGAUCUCUCUGGUGGGCUGGCAGUCAUAAUUCACAAUUCAGACAGCCCAGGCUUCCUCCACAGUGGUCCAAGGAGCAGUCCUCAGUGGGGGCAGGUGUGGGCCCUACCCCUAAGCUAGAAUGUGGCAACAGAGGAUUGAGCAUCA
B19: chr22:38866210:38866312:-|CDS|ENSG00000183741|unk|FALSE|bound_elsewhere (ssRNA)
RNA: GGGAGUUCUACAGUCCGACGAUCGACGGUCACAAUCAAGGAAUUCUGCAACCCUGAGGAUUUCGAGAAGGUGGCUGCUGGGGUAGCAGGCGCCGCUGGGGGCGGUGGCAGCAUUGGGGCGAGCAAGUGAGGGGGCUCCACCAACAACAGAGGAUUGAGCAUCA
B20: ENSG00000198589:be:win_701|CDS|ENSG00000198589|bound_else_gene|NA|bound_elsewhere_windowed (ssRNA)
RNA: GGGAGUUCUACAGUCCGACGAUCAUACAUGGCUUAGAAUGGAUCCUGUAAAUAACAUCAAUGUAGAUAAGGAUAAACCAUAUUUGUAUUGUUUCAGAACCAGCAAAGGUCUUGGCUAUUCUGCUCAUUUUGUUGGAGGCUGUUCAACAGAGGAUUGAGCAUCA
B21: chr11:92891788:92891889:+|3pUTR|ENSG00000165323|msi1|FALSE|bound_elsewhere (ssRNA)
RNA: GGGAGUUCUACAGUCCGACGAUCAUGAGGCUUUUUGGGUUCCAUUUGGUGGGUGGGGGAGGAAGUUAAAGUUGUUUGAACAUUAGAAAGAAUGUGAUUAUCUGGUUGGUUUUGUGUUUUCUGGUAAAUAUUCCAGUUGGUAAACAACAGAGGAUUGAGCAUCA
B22: chr2:11642538:11642650:+|3pUTR|ENSG00000196208|unk|total|mutant (ssRNA)
RNA: GGGAGUUCUACAGUCCGACGAUCCGAAGAGUUGAUGUCAAUCUUUUUUUCCUAAGAAAAAAAGUCCGCGAGUAUUAAAUAUUCCGAUCAAUGUUUAUAAAAUGAUUACUUUGUAUAUCUCAUUAUUCCUAUUUUGGAAUAAAACAACAGAGGAUUGAGCAUCA

These binders were tested against T1, UNK ZnF1-6 (called full-length) (assay: nsRBNS (natural sequence RNA bind-n-seq); RBNS binding buffer (assumed for nsRBNS): 25 mM Tris pH 7.5, 150 mM KCl, 3 mM MgCl2, 0.01% Triton X-100, 500 ug/ml BSA, 20 U/ml SUPERase-In, 4 C; UNK is unkempt and MSI1 is Musashi-1; names of the RNAs are library labels; protein concentration not given here; high values mean tight binding).
B1 gave a binding signal of 0.472 enrichment R. In the case of B2, the binding signal is reported as 0.75 enrichment R. For B3, the binding signal was 0.789 enrichment R. Binder B4 has a binding signal of 5.92 enrichment R. B5 showed a binding signal of 14.9 enrichment R. Work on B6 yielded a binding signal of 0.808 enrichment R. Work on B7 yielded a binding signal of 0.304 enrichment R. With B8 the binding signal was 2.86 enrichment R. Work on B9 yielded a binding signal of 0.482 enrichment R. Work on B10 yielded a binding signal of 0.541 enrichment R. Work on B11 yielded a binding signal of 171 enrichment R. B12 showed a binding signal of 0.277 enrichment R. B13 showed a binding signal of 0.846 enrichment R. Work on B14 yielded a binding signal of 0.273 enrichment R. B15 gave a binding signal of 0.532 enrichment R. With B16 the binding signal was 0.226 enrichment R. Binder B17 has a binding signal of 0.216 enrichment R. Binder B18 has a binding signal of 0.776 enrichment R. In the case of B19, the binding signal is reported as 0.91 enrichment R. B20 was tested, and the binding signal was 0.482 enrichment R. B21 showed a binding signal of 1.22 enrichment R. With B22 the binding signal was 0.544 enrichment R.
